Consider 32 sequences from PMC12820563, “FoxP3 forms a head-to-head dimer in vivo and stabilizes its multimerization on adjacent microsatellites”.

This is one part of the list.

The target of this assay is T1, MBP-FoxP1dN (Mus musculus, UniProt P58462 326-579).
T1 sequence: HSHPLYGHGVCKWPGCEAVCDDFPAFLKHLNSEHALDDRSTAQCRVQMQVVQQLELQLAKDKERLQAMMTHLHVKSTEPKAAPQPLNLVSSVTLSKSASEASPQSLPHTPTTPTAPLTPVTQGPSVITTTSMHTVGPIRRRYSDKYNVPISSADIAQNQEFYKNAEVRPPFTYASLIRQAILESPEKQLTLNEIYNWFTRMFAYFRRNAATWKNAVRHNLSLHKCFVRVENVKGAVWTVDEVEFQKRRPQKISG
Put plainly: PD-seq (MBP pull-down with sequencing); 20 mM Tris-HCl pH 7.5, 100 mM NaCl, 1.5 mM MgCl2, 0.4 uM protein, 0.1 uM dsDNA library, 30 min, room temperature, amylose pull-down; high values mean tight binding. Conditions: protein: recombinant; tags: His6-MBP; chain copies: 2; dsDNA, one strand shown. Put shortly:
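Amylose resin was used to capture complexes formed during 30 min at room temperature in Tris pH 7.5 buffer with NaCl and MgCl2 between 0.4 µM His6-MBP-tagged mouse FoxP3 or FoxP1 fragment lacking the N-terminus, expressed in E. coli, and 0.1 µM Klenow-filled double-stranded degenerate DNA library. After three washes, the DNA was released with proteinase K, barcoded by PCR and sequenced on Illumina. Binding is pooled-replicate reads-per-million enrichment, pull-down over input.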
On to “GATGATTGTTCTCCCAGCTGATGAATTGACACCCTCGAGTAAACAAATTTTCCTAATCTTTCTGTTCAAGCGCCATCTAC”, for which the binding signal is 1.11 RPM ratio (pull-down/input).

As to “GATGATTGTTCTCCCAGCTGATGAATTTGAGCGATCGAGTAAACAAATTTTCCTAATCTTTCTGTTCAAGCGCCATCTAC”, the binding signal is 0.84 RPM ratio (pull-down/input). Regarding “GATGATTGTTCTCCCAGCTGATGAATTAGTCGATTCGAGTAAACAAATTTTCCTAATCTTTCTGTTCAAGCGCCATCTAC”, the binding signal was 0.937 RPM ratio (pull-down/input). Consider “GATGATTGTTCTCCCAGCTGATGAATTTAAGCAGTCGAGTAAACAAATTTTCCTAATCTTTCTGTTCAAGCGCCATCTAC”, for which the binding signal is 0.917 RPM ratio (pull-down/input). With “GATGATTGTTCTCCCAGCTGATGAATTTGGATGGTCGAGTAAACAAATTTTCCTAATCTTTCTGTTCAAGCGCCATCTAC”, the binding signal is 0.869 RPM ratio (pull-down/input). Then “GATGATTGTTCTCCCAGCTGATGAATTGTGGACTTCGAGTAAACAAATTTTCCTAATCTTTCTGTTCAAGCGCCATCTAC”, with 1.08 RPM ratio (pull-down/input); and “GATGATTGTTCTCCCAGCTGATGAATTCGTTGATTCGAGTAAACAAATTTTCCTAATCTTTCTGTTCAAGCGCCATCTAC”, with 0.954 RPM ratio (pull-down/input); and “GATGATTGTTCTCCCAGCTGATGAATTAATCTGATCGAGTAAACAAATTTTCCTAATCTTTCTGTTCAAGCGCCATCTAC”, with 0.897 RPM ratio (pull-down/input). Then “GATGATTGTTCTCCCAGCTGATGAATTTGGAACTTCGAGTAAACAAATTTTCCTAATCTTTCTGTTCAAGCGCCATCTAC”, with 0.857 RPM ratio (pull-down/input).

With “GATGATTGTTCTCCCAGCTGATGAATTCCGGGGTTCGAGTAAACAAATTTTCCTAATCTTTCTGTTCAAGCGCCATCTAC”, the binding signal was 0.78 RPM ratio (pull-down/input). As for “GATGATTGTTCTCCCAGCTGATGAATTATTAGAGTCGAGTAAACAAATTTTCCTAATCTTTCTGTTCAAGCGCCATCTAC”, the binding signal is 1.01 RPM ratio (pull-down/input). Consider “GATGATTGTTCTCCCAGCTGATGAATTGGGAGAATCGAGTAAACAAATTTTCCTAATCTTTCTGTTCAAGCGCCATCTAC”, for which the binding signal is 0.885 RPM ratio (pull-down/input). Then “GATGATTGTTCTCCCAGCTGATGAATTACCCCGTTCGAGTAAACAAATTTTCCTAATCTTTCTGTTCAAGCGCCATCTAC”, with 0.887 RPM ratio (pull-down/input). In the case of “GATGATTGTTCTCCCAGCTGATGAATTACATGCTTCGAGTAAACAAATTTTCCTAATCTTTCTGTTCAAGCGCCATCTAC”, the binding signal was 1.3 RPM ratio (pull-down/input). With “GATGATTGTTCTCCCAGCTGATGAATTGAAGCGTTCGAGTAAACAAATTTTCCTAATCTTTCTGTTCAAGCGCCATCTAC”, the binding signal was 0.916 RPM ratio (pull-down/input). Then “GATGATTGTTCTCCCAGCTGATGAATTTCCTGTTTCGAGTAAACAAATTTTCCTAATCTTTCTGTTCAAGCGCCATCTAC”, with 0.949 RPM ratio (pull-down/input). Then “GATGATTGTTCTCCCAGCTGATGAATTGTGCTATTCGAGTAAACAAATTTTCCTAATCTTTCTGTTCAAGCGCCATCTAC”, with 1.26 RPM ratio (pull-down/input); and “GATGATTGTTCTCCCAGCTGATGAATTCGAGTTCTCGAGTAAACAAATTTTCCTAATCTTTCTGTTCAAGCGCCATCTAC”, with 0.817 RPM ratio (pull-down/input). With “GATGATTGTTCTCCCAGCTGATGAATTACTTGCCTCGAGTAAACAAATTTTCCTAATCTTTCTGTTCAAGCGCCATCTAC”, the binding signal is 0.977 RPM ratio (pull-down/input). Then “GATGATTGTTCTCCCAGCTGATGAATTTATCTAATCGAGTAAACAAATTTTCCTAATCTTTCTGTTCAAGCGCCATCTAC”, with 1.32 RPM ratio (pull-down/input); and “GATGATTGTTCTCCCAGCTGATGAATTTTTGTACTCGAGTAAACAAATTTTCCTAATCTTTCTGTTCAAGCGCCATCTAC”, with 1.14 RPM ratio (pull-down/input).

Turning to “GATGATTGTTCTCCCAGCTGATGAATTATGCAACTCGAGTAAACAAATTTTCCTAATCTTTCTGTTCAAGCGCCATCTAC”, the binding signal is 1.33 RPM ratio (pull-down/input).

With “GATGATTGTTCTCCCAGCTGATGAATTCCATGTGTCGAGTAAACAAATTTTCCTAATCTTTCTGTTCAAGCGCCATCTAC”, the binding signal was 0.939 RPM ratio (pull-down/input). For “GATGATTGTTCTCCCAGCTGATGAATTTCACCGTTCGAGTAAACAAATTTTCCTAATCTTTCTGTTCAAGCGCCATCTAC”, the binding signal is 0.805 RPM ratio (pull-down/input). Take “GATGATTGTTCTCCCAGCTGATGAATTTATTGGTTCGAGTAAACAAATTTTCCTAATCTTTCTGTTCAAGCGCCATCTAC”: the binding signal is 1.47 RPM ratio (pull-down/input). To “GATGATTGTTCTCCCAGCTGATGAATTCGTTTAGTCGAGTAAACAAATTTTCCTAATCTTTCTGTTCAAGCGCCATCTAC” belongs 0.947 RPM ratio (pull-down/input).

Regarding “GATGATTGTTCTCCCAGCTGATGAATTCGTGAGTTCGAGTAAACAAATTTTCCTAATCTTTCTGTTCAAGCGCCATCTAC”, the binding signal was 0.814 RPM ratio (pull-down/input).

As for “GATGATTGTTCTCCCAGCTGATGAATTAAAAGTCTCGAGTAAACAAATTTTCCTAATCTTTCTGTTCAAGCGCCATCTAC”, the binding signal is 0.816 RPM ratio (pull-down/input). On to “GATGATTGTTCTCCCAGCTGATGAATTACCGGGTTCGAGTAAACAAATTTTCCTAATCTTTCTGTTCAAGCGCCATCTAC”, for which the binding signal is 0.843 RPM ratio (pull-down/input). For “GATGATTGTTCTCCCAGCTGATGAATTAATAGGGTCGAGTAAACAAATTTTCCTAATCTTTCTGTTCAAGCGCCATCTAC”, the binding signal was 0.823 RPM ratio (pull-down/input).

Consider “GATGATTGTTCTCCCAGCTGATGAATTTGGGTACTCGAGTAAACAAATTTTCCTAATCTTTCTGTTCAAGCGCCATCTAC”, for which the binding signal was 0.961 RPM ratio (pull-down/input). Turning to “GATGATTGTTCTCCCAGCTGATGAATTATGGACTTCGAGTAAACAAATTTTCCTAATCTTTCTGTTCAAGCGCCATCTAC”, the binding signal is 0.923 RPM ratio (pull-down/input).
